Assay results: article PMC4336329 (PLoS ONE, 2015)
In all, about 310,000 compounds went through this assay and about 2,200 (0.71%) showed an effect of 50% or more. The effect is printed as a negative number. The list shows a part of the results.

molecular target: human ether-à-go-go-related gene (hERG) potassium channel (human, UniProt Q12809); assay: primary screen, population patch clamp on CHO cells stably expressing hERG
Sequence (Q12809 whole entry, looked up): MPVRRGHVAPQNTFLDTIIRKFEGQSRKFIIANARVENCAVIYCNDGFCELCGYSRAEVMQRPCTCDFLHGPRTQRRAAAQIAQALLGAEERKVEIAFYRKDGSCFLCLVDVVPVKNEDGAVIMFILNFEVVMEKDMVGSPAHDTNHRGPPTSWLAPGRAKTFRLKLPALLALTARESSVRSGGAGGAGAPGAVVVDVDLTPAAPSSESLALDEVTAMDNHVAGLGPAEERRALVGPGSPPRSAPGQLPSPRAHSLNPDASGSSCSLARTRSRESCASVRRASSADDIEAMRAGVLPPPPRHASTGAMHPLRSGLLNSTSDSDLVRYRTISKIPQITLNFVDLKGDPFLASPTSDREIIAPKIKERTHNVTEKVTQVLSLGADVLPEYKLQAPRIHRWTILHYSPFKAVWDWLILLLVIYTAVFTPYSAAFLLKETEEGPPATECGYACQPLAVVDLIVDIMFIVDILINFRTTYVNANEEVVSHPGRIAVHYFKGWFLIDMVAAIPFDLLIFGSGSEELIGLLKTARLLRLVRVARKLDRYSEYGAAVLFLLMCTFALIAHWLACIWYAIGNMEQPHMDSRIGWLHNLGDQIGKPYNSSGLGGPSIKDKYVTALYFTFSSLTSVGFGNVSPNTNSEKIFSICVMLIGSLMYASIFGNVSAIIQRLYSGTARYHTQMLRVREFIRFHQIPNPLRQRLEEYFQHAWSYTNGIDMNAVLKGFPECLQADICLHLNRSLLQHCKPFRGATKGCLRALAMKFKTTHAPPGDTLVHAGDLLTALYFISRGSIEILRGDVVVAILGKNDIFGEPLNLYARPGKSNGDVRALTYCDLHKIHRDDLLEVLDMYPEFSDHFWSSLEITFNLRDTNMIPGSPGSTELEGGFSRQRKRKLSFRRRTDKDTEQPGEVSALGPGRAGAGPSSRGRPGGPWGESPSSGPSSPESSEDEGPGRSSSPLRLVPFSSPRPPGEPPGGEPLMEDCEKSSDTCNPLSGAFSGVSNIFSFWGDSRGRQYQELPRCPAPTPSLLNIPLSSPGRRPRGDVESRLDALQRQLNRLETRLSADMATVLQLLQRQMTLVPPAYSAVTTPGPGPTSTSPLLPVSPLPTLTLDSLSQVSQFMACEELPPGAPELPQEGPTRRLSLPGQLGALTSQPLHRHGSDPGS

In order of falling “hERG current change (%, negative = inhibition) at 1uM” value:
1. COc1ccc(CCNC(=S)N(C)C)cc1OC  30.2%
2. COc1cc(C2CC(=O)C=C(O)C2)cc(OC)c1OC (stereo not drawn)  22.1%
3. CN(C)c1ccc(C=NCC2COc3ccccc3O2)cc1 (stereo not drawn)  21.7%
4. COc1ccc(NC(=O)CN2C(=O)CSc3ccc(S(=O)(=O)N4CCC(C)CC4)cc32)cc1  20.8%
5. O=C1C=CC(O)(c2cc(=O)c3c(O)cc(O)cc3o2)C=C1  19.7%
6. CCC(C)NC(=O)Cn1cnc2sc(C)c(S(=O)(=O)N3CCN(c4ncccn4)CC3)c2c1=O (stereo not drawn)  17.7%
7. O=C(Nc1ccccc1-c1ccccc1)C(=O)Nc1ccccc1-c1ccccc1  17.3%
8. Cc1ccccc1C(=O)NC1CCN(Cc2nnnn2C(C)(C)C)CC1  17.2%
9. Cc1[nH]c2ccccc2c1C(=O)CSc1ncn[nH]1  15.9%
10. Cc1cc(C(=O)NCC(=O)OCC(=O)N2CCCCCC2)ccc1[N+](=O)[O-]  15.3%
11. CC1Cc2ccccc2N1C(=O)COC(=O)c1ccc(S(=O)(=O)N(C)C)cc1 (stereo not drawn)  15.2%
12. Cc1cc(SCc2ccccc2F)nc(=O)[nH]1  15.1%
13. COCCN(CC(=O)NCC1CCCO1)C(=O)CCC(=O)Nc1ccccn1 (stereo not drawn)  14.8%
14. Cc1nn(C)c(C)c1NC(=O)c1ccc(Cl)cc1  14.8%
15. COc1cc(/C=N/n2c(COc3ccccc3)n[nH]c2=S)cc(Br)c1O  14.5%
16. CCCCC1C(=O)N(c2ccccc2)N(c2ccccc2)C1=O  14.1%
17. Cc1cc(NS(=O)(=O)c2ccccc2)c([N+](=O)[O-])cc1C  14%
18. COC(=O)c1ccc(NC(=O)CC2C(=O)N(C)C(=S)N2Cc2ccc(S(N)(=O)=O)cc2)cc1 (stereo not drawn)  13.9%
19. COC(=O)CC/C(O)=C1\C(=O)CC(C)(C)CC1=Nc1ccccc1OC  13.8%
20. Cc1ccc2c(c1)nnn2C1CCN(CC(=O)NNC(=O)c2ccco2)CC1  13.5%
21. COc1ccc(Br)cc1/C=N/Nc1ccccn1  13.5%
22. CCN(CC)CCNC(=O)C1(O)c2cc(Br)ccc2NC(=O)N1c1c(F)cccc1F (stereo not drawn)  13.3%
23. CC(C)C(=O)NC(=O)COC(=O)/C=C/c1cccs1  13.3%
24. CCCCNC(=O)Nc1c(C)cc(SC#N)cc1C  13.3%
25. Nc1ccnn1Cc1ccc(Br)s1  12.9%
26. CC1CCN(C(=S)NC(=O)c2ccco2)CC1  12.9%
27. CCCC1(c2ccccc2)NC(=O)N(CC(=O)NCc2ccc(C)cc2)C1=O (stereo not drawn)  12.8%
28. COc1cc(N=Cc2c(O)[nH]c3ccccc23)cc(OC)c1OC  12.5%
29. Cc1cccn2c(/C=N/OCc3ccc(F)cc3)c(-c3ccc(Cl)cc3)nc12  12.4%
30. COc1cccc(N/C=C/C(=O)c2ccc(Br)cc2)c1  12.3%
31. CCOC(=O)N1CCC(NC(=O)C2CCN(C(=O)c3cc4sccc4n3CC)CC2)CC1  12.2%
32. O=C(O)c1ccccc1-c1cc2ccccc2[nH]1  12%
33. Cc1ccc(NC(=O)C2CCN(S(=O)(=O)c3ccc4c(c3)NC(=O)C(C)S4)CC2)cc1Cl (stereo not drawn)  11.8%
34. N#CCCN(Cc1ccccc1)C(=O)c1nccnc1C(=O)O  11.8%
35. COc1cccc(NC(=O)CN(C)C(=O)CSc2ncnc3sc(C)c(C)c23)c1  11.7%
36. N#C/C(=C\c1cccc(Br)c1)C(=O)N1CCCCC1  11.5%
37. COc1cccc(NC(=O)Nc2cc(C)ccc2OC)c1  11.1%
38. CCCCCCCNc1cccc(C)c1  11%
39. Cc1ccc(C(=O)OC2CCOC2=O)cc1NC(=O)c1ccco1 (stereo not drawn)  11%
40. COc1ccc(N2CC(C(=O)OCC(=O)c3ccc(C)cc3)CC2=O)cc1 (stereo not drawn)  10.8%
41. COc1ccc(NC(=O)c2cc(-c3ccc4c(c3)OCO4)on2)cc1  10.8%
42. O=C(Nc1ccc2c(c1)OCO2)c1cccc(F)c1  10%
43. CCC(=C(c1ccc(OC)cc1)c1ccc(OC)cc1)c1cn(CC(O)CN(CCO)CCO)c2ccccc12.O=C(O)/C=C\C(=O)O (stereo not drawn)  10%
44. O=C(C1CC1)N1CCc2cc(S(=O)(=O)NC3CCN(Cc4ccccc4)CC3)ccc21  10%
45. COc1cc(C(CC(=O)Nc2cc(C)ccn2)N2Cc3ccccc3C2=O)cc(OC)c1OC (stereo not drawn)  9.76%
46. N=c1oc2ccc(Br)cc2cc1C(=O)NCc1ccccc1  9%
47. COc1ccc(CCNC(=O)CNS(=O)(=O)c2ccc(N(C)C)c([N+](=O)[O-])c2)cc1OC  8.96%
48. COc1ccc(CC(=O)NNc2ncnc3c2cnn3-c2ccc(C)cc2)cc1OC  8.68%
49. COC(=O)C1(C)CCC(C(=O)Nc2ccccc2)C1(C)C (stereo not drawn)  8.57%
50. CCOC(=O)C1=C(O)/C(=C/c2cc(OC)c(OC)c(OC)c2)SC1=Nc1ccc(OC)cc1  8.28%
51. NNC(=O)c1sccc1OCc1ccc(F)cc1  8.12%
52. O=C(NC1CC(=O)N(c2ccc3c(c2)OCCO3)C1)N1CCC(O)CC1 (stereo not drawn)  8.06%
53. Nc1c2ccccc2[nH+]c2ccccc12.[Cl-]  7.31%
54. Cc1ccc(C(=O)Nc2ccc(N3CCOCC3)cc2)cc1S(=O)(=O)N1CCCCC1  7.22%
55. CCOC(=O)C1=C(C)NC(=O)NC1c1cccc(OC)c1OCc1ccccc1Cl (stereo not drawn)  7%
56. CCC(C)NC(=O)c1cn(CC)c2cc(N3CCN(C)CC3)c(F)cc2c1=O (stereo not drawn)  6.99%
57. CCOC(=O)N(c1ccccc1)P1(=S)OCCO1  6.65%
58. COC(=O)c1sccc1NC(=O)c1cc(OC)c(OC)c(OC)c1  6.61%
59. CC(=O)c1ccc(NC(=O)Nc2ccc(Cl)cc2)cc1  6.57%
60. OC(c1ccc2c(c1)OCO2)c1nccc2ccccc12 (stereo not drawn)  6.49%
61. Nc1cc(N2CCOCC2)c(Cl)cc1[N+](=O)[O-]  6.48%
62. CC(C)n1c(-c2ccccc2)nc(=S)c2c1CCCC2  6.31%
63. Oc1ccc(Br)cc1-c1cc(-c2ccccc2F)[nH]n1  5.79%
64. CCCOc1ccc(C(O)C(CN2CCOCC2)c2ccccc2)cc1.Cl (stereo not drawn)  5.72%
65. Nc1ncc(S(=O)(=O)c2ccc(Cl)cc2)c(N)n1  5.71%
66. O=C(NCC1CCCO1)/C(=C\c1ccccc1F)NC(=O)c1ccccc1 (stereo not drawn)  5.25%
67. CCc1cccc2c(C(=O)CSc3nnc(C4CC4)o3)c[nH]c12  5.25%
68. Cc1cc(/C=N/NC(=O)CC2(C)OCCO2)c(C)n1-c1cc(Cl)cc(Cl)c1  4.79%
69. Cn1ccnc1C1CCCCN1Cc1nc(-c2ccc3c(c2)OCO3)no1 (stereo not drawn)  3.68%
70. CC1CCCCC12NC(=O)N(CC(=O)N1CCN(Cc3ccc(C#N)cc3)CC1)C2=O (stereo not drawn)  3.59%
71. CCOC(=O)N1CCN(C(=O)COc2ccccc2Cl)CC1  3.45%
72. CCCCCC(=O)NC(CC(=O)OC)c1ccc2c(c1)OCO2 (stereo not drawn)  3.19%
73. O=c1c2[nH]c3cccc(Cl)c3c2ncn1CCN1CCCCC1  2.61%
74. O=C(CC1CC2CCC1C2)N1CCN(S(=O)(=O)c2ccccc2C(F)(F)F)CC1 (stereo not drawn)  2.47%
75. CCn1cc(C(=O)O)c(=O)c2cc(F)c(N3CCN(C(=S)NC(=O)c4ccccc4C)CC3)cc21  2.25%
76. CCOc1ccc(C2CC(=O)c3c([nH]c(C(=O)OC)c3C)C2)cc1OC (stereo not drawn)  2.14%
77. CC1CCCCN1CCNC(=O)C1CCN(S(=O)(=O)c2cccc3cccnc23)CC1 (stereo not drawn)  1.57%
78. CCN1CCN(CCCNC(=O)c2ccc3c(c2)NC(=O)/C(=C\c2cccc(C)c2)S3)CC1  0.165%
79. Cc1ccc(C(=O)OC/C(O)=C(\C#N)c2nc3ccccc3[nH]2)cc1S(=O)(=O)N1CCOCC1  -1.51%
80. CNC(=O)CCCCCNS(=O)(=O)c1ccc(C)cc1  -1.73%
81. O=C(CSc1nnc2n1CCCCC2)Nc1ccc(N2CCOCC2)cc1  -1.75%
82. CCn1c(=O)c(C(=O)NCCN2CCCCC2)c(O)c2ccccc21.Cl  -3.9%
83. COCCOC(=O)C1=C(N)Oc2c(c(=O)oc3ccccc23)C1c1ccncc1 (stereo not drawn)  -4.55%
84. Cl.FC(F)Sc1ccc(NC2=NCCCCC2)cc1  -7.36%
85. CC(C)=CCCC(C)CN1CCC(N2CCC(C(=O)N3CCOCC3)CC2)CC1 (stereo not drawn)  -8.77%
86. COC(=O)c1ccc(C(=O)NC2CCCN(Cc3ccc(Cl)cc3)C2)nc1 (stereo not drawn)  -11.3%
87. CC1(c2nnc(Cc3ccccc3)o2)CC(c2ccc(Cl)cc2)=NO1 (stereo not drawn)  -11.4%
88. O=[N+]([O-])c1ccc(S(=O)(=O)NCCc2cn3ccccc3n2)cc1  -15.5%
89. C=CCn1c(SCc2c(C(=O)OC)sc(N)c2C(=O)OC)nnc1-c1ccc(Br)cc1  -16.1%
90. Cc1ccn2c(-c3csc(NCc4ccco4)n3)c(C)nc2c1  -24.7%
